Results reported in PubChem BioAssay AID588591 (National Center for Advancing Translational Sciences (NCATS), 2011).
The campaign covered roughly 390,000 compounds. About 4,700 (1.2%) were called active. The shares of active, inactive and inconclusive entries below differ from those in the screen. Calls come from the whole dose curve; as a rule, active = well fitted inhibition curve with a large enough effect; inconclusive = small, poorly fitted or top-dose-only effect, or another doubt; inactive = no such curve, though single readings can be large or run the other way. Where the call is inconclusive, the potency comes from a doubtful curve fit.
% is set by controls: 0 for no effect and ±100 for the full control effect; potency is the fitted concentration of half-maximal effect; tags give direction and shape of the fitted curve.

These compounds were tested against DNA polymerase eta (Homo sapiens) (UniProt Q9Y253) (assay: qHTS for Inhibitors of Polymerase Eta). Settings: recombinant Pol eta, fluorescent DNA replication assay; series mostly up to 114 µM; activity change, negative = inhibition: at the top concentration.
Sequence of UniProt Q9Y253 (Q9Y253 whole entry, looked up): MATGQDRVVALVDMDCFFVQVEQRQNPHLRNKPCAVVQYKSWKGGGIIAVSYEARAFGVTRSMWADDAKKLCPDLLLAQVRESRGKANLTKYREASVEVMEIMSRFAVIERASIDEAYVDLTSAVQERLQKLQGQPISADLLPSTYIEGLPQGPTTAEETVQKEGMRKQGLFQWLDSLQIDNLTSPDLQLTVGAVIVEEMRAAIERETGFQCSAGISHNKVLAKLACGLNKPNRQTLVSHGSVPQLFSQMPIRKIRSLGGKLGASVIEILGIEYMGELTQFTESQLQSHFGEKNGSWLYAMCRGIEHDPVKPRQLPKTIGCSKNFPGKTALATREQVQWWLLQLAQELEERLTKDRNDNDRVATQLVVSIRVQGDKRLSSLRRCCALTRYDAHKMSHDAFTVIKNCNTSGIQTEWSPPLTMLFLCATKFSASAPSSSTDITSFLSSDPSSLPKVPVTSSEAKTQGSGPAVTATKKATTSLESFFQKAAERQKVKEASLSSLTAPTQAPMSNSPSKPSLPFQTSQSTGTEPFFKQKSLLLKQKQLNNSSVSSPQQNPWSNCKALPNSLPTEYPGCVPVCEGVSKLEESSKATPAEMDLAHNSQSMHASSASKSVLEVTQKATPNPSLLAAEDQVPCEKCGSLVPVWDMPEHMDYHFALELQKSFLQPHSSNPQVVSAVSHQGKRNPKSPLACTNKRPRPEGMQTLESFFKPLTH
How it was run: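 Pol eta at 10 nM preincubated with compounds 15 min at room temperature; reaction started with fluorescent substrate (50 nM final) and read kinetically at 0 and 10 min.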
In the case of COc1ccc(Br)cc1/C=C(\C(=O)O)c1ccc(S(=O)(=O)N2CCCCC2)s1, the Potency is reported as inconclusive: 44.7 µM [inhibitor, partial curve].
In the case of CCOc1ccc(C2CC(=O)c3c([nH]c(C(=O)OC)c3C)C2)cc1OC (stereo unspecified), the Potency is reported as active: 15.8 µM.
For Cc1ccc(-c2nc(CN3CCCCC3c3cccc(F)c3)c(C)o2)o1 (stereo unspecified), the Potency was inconclusive: 79.4 µM [inhibitor, partial curve, poor fit].
For O=C(CCc1nc2ccccc2c(=O)[nH]1)N1CCN(S(=O)(=O)c2ccc(F)cc2)CC1, the Potency was inconclusive: 89.1 µM [inhibitor, partial curve, poor fit].
For O=C1CN(S(=O)(=O)c2cccc(Cl)c2Cl)CCN1, the Potency was inconclusive: 44.7 µM [inhibitor, single point].
For C=CCn1c2ccccc2c2nnc(SCCCn3c(=O)[nH]c4ccccc43)nc21, the Potency was inconclusive: 31.6 µM [inhibitor, partial curve, poor fit].
For COc1ccc(CCNC(=O)c2cc3c(=O)n4ccccc4nc3n(Cc3ccco3)c2=N)cc1OC, the Potency was inconclusive: 15.8 µM [inhibitor, full curve, poor fit].
With Nc1nc(CN2CCCCCC2)nc(Nc2ccccc2)n1 the “activity change, negative = inhibition” value was inactive: 2.9%.
For Cc1ccc(Cl)cc1N1CCN(C(=O)c2ccc3nc[nH]c3c2)CC1, the Potency was inconclusive: 31.6 µM [inhibitor, single point].
For Cc1ccc(/C=C2\SC(=S)N(/N=C/c3cc([N+](=O)[O-])ccc3O)C2=O)o1, the Potency was active: 10 µM.
In the case of CN(CC(=O)NCc1ccccc1)CC(=O)Nc1ccc(Cl)c(C(F)(F)F)c1, the Potency is reported as inconclusive: 89.1 µM [inhibitor, partial curve, poor fit].
COc1ccc(N(C)C(=O)c2oc(=O)c3ccccc3c2-c2ccc(C)cc2)c(OC)c1 was tested, and the Potency was inconclusive: 56.2 µM [inhibitor, partial curve, poor fit].
For Cc1nc(S/C(=C/c2ccc(-c3cccc(Cl)c3)o2)C(=O)O)n[nH]1, the Potency was inconclusive: 15.8 µM [inhibitor, full curve, poor fit].
For Cc1ccc(-c2cc(C(=O)N/N=C/c3c[nH]c4ccccc34)[nH]n2)cc1, the Potency was inconclusive: 56.2 µM [inhibitor, partial curve, poor fit].
In the case of O=C(NC(=S)Nc1cccc(Cl)c1N1CCCCC1)c1ccco1, the Potency is reported as inconclusive: 89.1 µM [inhibitor, partial curve, poor fit].
In the case of COC(=O)C1=C(O)/C(=C\c2ccc(CNC(=O)C(=O)Nc3ccc(C)c(C)c3)o2)N=C1C, the Potency is reported as active: 22.4 µM.
For Oc1c(Br)cc(/C=N/Nc2nncc3ccccc23)cc1Br, the Potency was inconclusive: 31.6 µM [inhibitor, partial curve, poor fit].
In the case of O=C(O)c1ccc(N2C(=O)/C(=C/c3ccc(-c4ccc([N+](=O)[O-])cc4)o3)C=C2c2ccccc2)cc1, the Potency is reported as active: 3.55 µM.
For O=C(CCl)N1c2ccccc2SCC1c1ccccc1 (stereo unspecified), the Potency was inconclusive: 50.1 µM [inhibitor, partial curve].
O=C(O)CSc1c2c(nc3cc(C(=O)Nc4ccc(F)c(Cl)c4)ccc13)CCCC2 was tested, and the Potency was active: 50.1 µM.
CCOC(=O)c1c2c([nH]c(=S)c1C#N)CCCC2 was tested, and the Potency was active: 79.4 µM.
For COc1cccc(-c2nn(-c3ccccc3)cc2C(=O)OCC(=O)Nc2ncc(Cl)cc2Cl)c1, the “activity change, negative = inhibition” value was inactive: 5.31%.
In the case of O=C(NCc1ccco1)C1CCCN(c2nnc(-n3cccc3)s2)C1 (stereo unspecified), the Potency is reported as inconclusive: 56.2 µM [inhibitor, partial curve, poor fit].
In the case of COc1ccc(N2CC(C(=O)N/N=C/c3ccc([N+](=O)[O-])cc3)CC2=O)cc1 (stereo unspecified), the Potency is reported as inconclusive: 100 µM [inhibitor, partial curve, poor fit].
Cc1cccc(NC(=O)/C(=C\c2ccc([N+](=O)[O-])o2)NC(=O)c2ccc(Cl)cc2)c1 was tested, and the Potency was active: 10 µM.
In the case of Cc1cc(C(=O)COC(=O)CCC(=O)c2ccc3c(c2)OCCO3)c(C)n1Cc1ccco1, the Potency is reported as inconclusive: 22.4 µM [inhibitor, single point].
In the case of Cc1ccc(/C=C/c2onc(C)c2S(=O)(=O)N2CCC(C(=O)Nc3cccc(C#N)c3)CC2)cc1, the “activity change, negative = inhibition” value is reported as inactive: 2.91%.
For Cc1ccc(C2=NN(CC(=O)NCc3ccco3)C(=O)CC2)cc1, the Potency was inconclusive: 35.5 µM [inhibitor, single point].
O=C(CSc1nnnn1-c1ccccc1)NC(=O)NCc1ccco1 was tested, and the Potency was active: 8.91 µM.
With O=c1c2c(nc3cc(-c4ccc(Cl)cc4)[nH]n13)CCS2 the Potency was inconclusive: 35.5 µM [inhibitor, partial curve, poor fit].
In the case of COc1ccccc1CNC(=O)CSc1nc2nc(C)c(Cc3ccccc3C)c(C)n2n1, the “activity change, negative = inhibition” value is reported as inactive: -13.4%.
In the case of CCOc1cc(N2CCOCC2)c(OCC)cc1NS(=O)(=O)c1ccc2c(c1)CC(=O)N2, the Potency is reported as inconclusive: 39.8 µM [inhibitor, partial curve, poor fit].
In the case of N#Cc1ccc(/C=C2\CCCCn3c2nc2cc(C(=O)O)ccc2c3=O)cc1, the “activity change, negative = inhibition” value is reported as inactive: -7.2%.
In the case of COc1ccccc1C=CC(=O)C=Cc1ccccc1OC, the Potency is reported as inconclusive: 25.1 µM [inhibitor, partial curve, poor fit].
O=C(CCc1nc2ccccc2c(=O)[nH]1)OCc1ccc(Cl)cc1Cl was tested, and the “activity change, negative = inhibition” value was inactive: -13.6%.
Cn1c(N)c(C(=O)COC(=O)C2Cc3ccccc3CN2S(C)(=O)=O)c(=O)n(C)c1=O (stereo unspecified) was tested, and the Potency was active: 12.6 µM.
CCOC(=O)c1ccc(N2C(=O)c3n[nH]c(-c4ccco4)c3C2c2cccc([N+](=O)[O-])c2)cc1 (stereo unspecified) was tested, and the Potency was inconclusive: 44.7 µM [inhibitor, partial curve, poor fit].
For CCOC(=O)c1sc(NC(=O)c2nc3nc(C)cc(C(F)F)n3n2)c(C(=O)OC(C)C)c1C, the Potency was active: 89.1 µM.
CN(C)S(=O)(=O)c1ccc(NC(=O)Cn2nc(-c3ccc4c(c3)OCCO4)ccc2=O)cc1 was tested, and the “activity change, negative = inhibition” value was inactive: -15.5%.
O=C(Nc1nc2ccccc2[nH]1)C1CC(=O)N(c2ccc3c(c2)OCCO3)C1 (stereo unspecified) was tested, and the Potency was inconclusive: 39.8 µM [inhibitor, partial curve, poor fit].
For O=C1COc2ccc(C(=O)COC(=O)/C=C/c3ccc(Br)o3)cc2N1, the Potency was active: 1.58 µM.
For CCCC1=Nc2cc(C(=O)N3CCN(c4ccccn4)CC3)ccc2Sc2ccc(C)cc21, the Potency was inconclusive: 89.1 µM [inhibitor, partial curve, poor fit].
With O=C(O)c1ccccc1Nc1cccc(OCc2ccc3ccccc3n2)c1 the Potency was inconclusive: 31.6 µM [inhibitor, single point].
With Cc1ccc(C(c2ccc(C)o2)c2cccc([N+](=O)[O-])c2O)o1 the Potency was active: 17.8 µM.
With Cc1ccc2oc(C(=O)NCC(c3ccc(Cl)cc3)N3CCOCC3)c(C)c2c1 (stereo unspecified) the Potency was inconclusive: 89.1 µM [inhibitor, partial curve, poor fit].
For Cc1oc(-c2cccc(Cl)c2)nc1CN1CCC(C(=O)NCc2ccc(F)cc2)CC1, the “activity change, negative = inhibition” value was inactive: -13.3%.
In the case of CCN1CCN(C(=O)c2cc(S(=O)(=O)N3CCCCC3)ccc2Cl)CC1, the Potency is reported as inconclusive: 100 µM [inhibitor, partial curve, poor fit].
With CC(C)Nc1cc(N2CCN(C3CCCCC3)CC2)c2noc3c2c1C(=O)c1ccccc1-3 the “activity change, negative = inhibition” value was inactive: -6.15%.
In the case of CCC(c1nnnn1C1CCCC1)N1CCN(c2ccccc2F)CC1 (stereo unspecified), the “activity change, negative = inhibition” value is reported as inactive: -9.22%.
CCC1=NN=C(c2ccc(F)cc2)C(c2c[nH]c3ccccc23)N1O (stereo unspecified) was tested, and the Potency was inconclusive: 28.2 µM [inhibitor, partial curve, poor fit].
With N#CC1=C(N)n2c(s/c(=C\c3ccco3)c2=O)=C(C#N)C1c1ccco1 (stereo unspecified) the Potency was active: 3.16 µM.
CCOC(=O)C1(CCc2ccccc2)CCN(C(=O)C2CCCO2)CC1 (stereo unspecified) was tested, and the “activity change, negative = inhibition” value was inactive: -11.8%.
In the case of CCN(CC)S(=O)(=O)c1ccc(C(=O)NCC2CCCCC2)cc1, the “activity change, negative = inhibition” value is reported as inactive: 2.06%.
Cc1ccc(S(=O)(=O)N2CCCCC2CCNC(=O)C(=O)NC2CCCC2)cc1 (stereo unspecified) was tested, and the Potency was inconclusive: 100 µM [inhibitor, partial curve, poor fit].
With COc1cccc(C(=O)Nc2nc3nc(C)c(Cc4ccccc4)c(=O)n3[nH]2)c1 the “activity change, negative = inhibition” value was inactive: -10.5%.
In the case of COc1cc2c(cc1NC(=O)C(Cl)Cl)-c1ccc(NC(=O)C(Cl)Cl)cc1C2, the Potency is reported as inconclusive: 25.1 µM [inhibitor, partial curve, poor fit].
N#C/C(=C\c1ccc(OCc2ccc(C(=O)O)cc2)cc1)C(=O)NCc1ccccc1 was tested, and the Potency was inconclusive: 89.1 µM [inhibitor, single point].
Cc1nn2c3c(cnc2c1-c1ccc(F)cc1)C(=O)CC(c1ccccc1)C3 (stereo unspecified) was tested, and the “activity change, negative = inhibition” value was inactive: -7.66%.
With CCCC(=O)c1cc2c(cc1NC(=O)c1ccccc1F)OCCO2 the Potency was inconclusive: 5.01 µM [inhibitor, partial curve, poor fit].
O=C(C=Cc1ccccc1)c1cccs1 was tested, and the Potency was inconclusive: 25.1 µM [inhibitor, single point].
With O=C(c1cccc([N+](=O)[O-])c1)N1c2nc(-c3ccco3)nn2C2(CCCCC2)[C@@H]2CCCC[C@@H]21 the “activity change, negative = inhibition” value was inactive: -4.81%.
In the case of O=C(NCCSc1ccc(Br)cc1)c1ccc2nc[nH]c2c1, the Potency is reported as active: 22.4 µM.
With CCN1C(=O)[C@H]2[C@H]3CN=C(SCc4ccccc4)N3[C@@](Cc3ccccc3)(C(=O)OC)[C@H]2C1=O the Potency was inconclusive: 89.1 µM [inhibitor, partial curve, poor fit].
Cc1ccc(OCC(=O)N(Cc2ccc(N(C)C)cc2)CC2CCCO2)cc1C (stereo unspecified) was tested, and the “activity change, negative = inhibition” value was inactive: -25.8%.
CN1/C(=C\C(=O)COC(=O)CNC(=O)c2ccc3ccccc3c2)C(C)(C)c2ccccc21 was tested, and the Potency was inconclusive: 89.1 µM [inhibitor, single point].
In the case of CCc1cc(=O)oc2cc3occ(-c4ccc(OC)c(F)c4)c3cc12, the Potency is reported as inconclusive: 12.6 µM [inhibitor, partial curve, poor fit].
